The target of assay [1] is T1, EGFP-ULK2 PY-NLS mutant (P794A) (human) (UniProt Q8IYT8).
T1 sequence: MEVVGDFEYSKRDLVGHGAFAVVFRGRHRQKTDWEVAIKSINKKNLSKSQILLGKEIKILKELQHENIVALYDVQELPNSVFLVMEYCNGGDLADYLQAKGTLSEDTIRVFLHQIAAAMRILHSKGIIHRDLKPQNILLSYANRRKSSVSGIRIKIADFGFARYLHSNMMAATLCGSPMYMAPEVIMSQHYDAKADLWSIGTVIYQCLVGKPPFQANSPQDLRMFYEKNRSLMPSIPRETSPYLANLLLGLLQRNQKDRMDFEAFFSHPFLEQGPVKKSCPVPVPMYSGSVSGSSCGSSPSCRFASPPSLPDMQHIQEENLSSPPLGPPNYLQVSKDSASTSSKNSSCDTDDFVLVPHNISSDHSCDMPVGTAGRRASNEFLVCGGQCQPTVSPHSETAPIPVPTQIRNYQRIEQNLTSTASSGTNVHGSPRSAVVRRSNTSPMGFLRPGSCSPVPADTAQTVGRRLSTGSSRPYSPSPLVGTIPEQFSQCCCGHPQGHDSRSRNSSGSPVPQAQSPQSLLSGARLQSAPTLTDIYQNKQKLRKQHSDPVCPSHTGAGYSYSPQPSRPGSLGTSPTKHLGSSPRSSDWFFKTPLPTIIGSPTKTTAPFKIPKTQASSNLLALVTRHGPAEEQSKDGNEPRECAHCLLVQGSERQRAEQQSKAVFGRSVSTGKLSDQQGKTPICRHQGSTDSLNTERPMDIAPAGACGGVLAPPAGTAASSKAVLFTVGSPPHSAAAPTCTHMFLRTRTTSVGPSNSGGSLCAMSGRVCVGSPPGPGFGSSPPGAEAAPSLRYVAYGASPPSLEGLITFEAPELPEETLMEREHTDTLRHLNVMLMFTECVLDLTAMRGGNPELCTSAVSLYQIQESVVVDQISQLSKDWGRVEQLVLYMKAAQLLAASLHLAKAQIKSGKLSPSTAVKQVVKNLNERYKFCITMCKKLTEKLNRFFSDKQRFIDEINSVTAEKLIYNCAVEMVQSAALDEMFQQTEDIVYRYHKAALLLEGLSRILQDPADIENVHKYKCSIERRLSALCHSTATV
The assay can be described thus: co-IP; HEK293 cells transfected with EGFP-ULK2 WT, P242A or P794A, lysed after 48 hours; IP with rabbit anti-EGFP antibody; blot for endogenous Kapβ2 (Fig 2B, Fig 5A).

Sequences of proteins named here, by UniProt entry; tags and fusion partners are left off.
UniProt Q92973: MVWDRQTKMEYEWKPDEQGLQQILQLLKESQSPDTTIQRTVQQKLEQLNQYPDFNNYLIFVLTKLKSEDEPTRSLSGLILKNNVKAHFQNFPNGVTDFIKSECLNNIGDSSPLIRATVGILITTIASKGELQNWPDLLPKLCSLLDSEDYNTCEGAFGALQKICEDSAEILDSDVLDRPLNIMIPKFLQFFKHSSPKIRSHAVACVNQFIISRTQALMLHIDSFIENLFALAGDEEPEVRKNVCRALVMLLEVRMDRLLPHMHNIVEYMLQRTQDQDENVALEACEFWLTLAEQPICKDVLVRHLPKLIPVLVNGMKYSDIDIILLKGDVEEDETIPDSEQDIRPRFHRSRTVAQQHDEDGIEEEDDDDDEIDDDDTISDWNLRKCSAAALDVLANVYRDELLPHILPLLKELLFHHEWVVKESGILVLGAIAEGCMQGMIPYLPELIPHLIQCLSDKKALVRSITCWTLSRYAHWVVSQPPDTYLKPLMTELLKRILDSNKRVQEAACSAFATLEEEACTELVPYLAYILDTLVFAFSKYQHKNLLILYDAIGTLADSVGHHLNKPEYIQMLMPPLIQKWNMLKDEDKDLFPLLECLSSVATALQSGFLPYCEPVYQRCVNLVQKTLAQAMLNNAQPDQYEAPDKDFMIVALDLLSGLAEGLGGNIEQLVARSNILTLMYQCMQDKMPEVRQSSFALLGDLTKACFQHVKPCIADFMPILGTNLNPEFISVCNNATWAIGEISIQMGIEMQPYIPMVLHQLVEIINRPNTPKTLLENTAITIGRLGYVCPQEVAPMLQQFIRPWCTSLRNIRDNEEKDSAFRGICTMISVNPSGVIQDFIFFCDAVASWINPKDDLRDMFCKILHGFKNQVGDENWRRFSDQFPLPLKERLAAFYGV

In a further assay the target is T2, EGFP-ULK2 WT (human) (UniProt Q8IYT8).
T2 sequence: T1 sequence with A794P
The description is as above.

Assay [2] concerns the target T3, Uncoordinated 51-like kinase 2 (ULK2), endogenous (human (endogenous in HEK293)) (UniProt Q8IYT8).
T3 sequence: T1 sequence with A794P
The assay can be described thus: co-IP; endogenous proteins of HEK293 lysate; IP with anti-ULK2 and blot for Kapβ2, and IP with anti-Kapβ2 and blot for ULK2; Protein A-Sepharose; control IP with an unrelated anti-EGFP antibody.

For assay [3], the target named is T4, GST-ULK2 WT (601–1036 aa) (human) (UniProt Q8IYT8).
T4 sequence: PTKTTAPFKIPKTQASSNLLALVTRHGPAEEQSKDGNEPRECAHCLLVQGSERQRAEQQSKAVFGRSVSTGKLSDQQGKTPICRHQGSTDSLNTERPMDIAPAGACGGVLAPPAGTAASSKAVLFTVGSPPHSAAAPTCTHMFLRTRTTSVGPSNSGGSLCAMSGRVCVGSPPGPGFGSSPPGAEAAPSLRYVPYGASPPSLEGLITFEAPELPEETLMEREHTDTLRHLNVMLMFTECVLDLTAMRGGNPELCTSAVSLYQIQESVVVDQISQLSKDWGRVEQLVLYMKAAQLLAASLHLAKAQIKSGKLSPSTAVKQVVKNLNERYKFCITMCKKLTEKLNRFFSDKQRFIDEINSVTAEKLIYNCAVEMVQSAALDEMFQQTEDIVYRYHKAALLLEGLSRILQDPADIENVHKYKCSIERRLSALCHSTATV
Briefly: pull-down; GST-ULK2 1–600 or 601–1036 bound to glutathione-sepharose beads (about 1 mg by the text, 0.1 mg by the legend) incubated with HEK293 cell lysates; blot for Kapβ2; only the target purified.

Residue numbers refer to the chain shown, from its start. These are yes or no findings as the source states them, for the method shown. In cells and extracts the contact can be indirect. Some entries that bind do so weakly or less than the wild type. For some of these results: Where a sequence is shown, tags or fusion partners need not be part of it.

Take “karyopherin beta 2 (Kapβ2), endogenous (from UniProt Q92973 1-898)”: the binding result was “no binding” in assay [1], “binds” with EGFP-ULK2 WT (human), “binds” in assay [2] and “binds” in assay [3].
